# In publication PMC10668032:
# Some of the results follow. At the low end of the ranking the order means little.
# Biological target: SIX1 homeodomain (reference allele) (UniProt Q15475)
# Assay: universal protein binding microarray
# Settings: Universal all-10-mer PBM (8x60K, AMADID 030236), 300 nM GST-tagged protein, Alexa Fluor 488 anti-GST; buffer, salt, pH and temperature not stated; high values mean tight binding; most listed sequences are background and not binding sites; double strand, one strand shown
row,Sequence,binding signal [E-score]
1,AGGGTTAT,-0.00877
2,AACCTCAC,-0.178
3,CCACTTTC,-0.181
4,CAGGGAAG,-0.258
5,ACCCTTAG,0.0833
6,CCACTCCG,-0.00756
7,CTAGTTAA,-0.227
8,CTACTCAG,-0.0974
9,ATTTGAAG,-0.23
10,GAGACGAA,0.12
11,AACGTGGA,-0.153
12,TGACAGCA,-0.146
13,ATTATACA,0.237
14,ATAGCGCC,0.0195
15,AACTAAAG,-0.0743
16,CCCAGCGG,0.0341
17,GTCGAAGA,-0.091
18,GGATGAAA,0.133
19,CAATCTCG,0.0438
20,ATTGACAG,-0.212
21,TAAAGTCA,-0.2
22,CAGAGGAA,-0.102
23,GCGCGAAC,-0.116
24,GACAATGC,-0.19
25,AAAGGTTG,-0.147

row,Sequence,binding signal [E-score]
1,AAGTCGAC,-0.0146
2,ACTATCAG,0.217
3,ATGGTGTG,0.183
4,GGATCTAC,0.257
5,AACACACT,-0.157
6,AGTGTCAC,0.253
7,ACCACGAT,0.139
8,GCGGAAGA,0.0167
9,AGAGACCG,-0.155
10,AGATGACC,-0.0612
11,GCGCTCAA,-0.135
12,ATAGTTCA,-0.0166
13,GCAAAAAA,-0.122
14,CCGCCATA,0.209
15,CGATACTC,0.454
16,AAACCTTT,-0.217
17,CCTACTTA,-0.00881
18,GTGCATGA,-0.185
19,ATCTTACC,0.296
20,AAAGGTAG,-0.085
21,CAGTCGCC,-0.168
22,ACGGCTCC,0.0451
23,CAGACCGG,-0.0211
24,CCTTGTTC,-0.141
25,GACTTCAC,-0.159

row,Sequence,binding signal [E-score]
1,ATTATAGG,0.117
2,GCCATAAA,0.0397
3,GGACATTA,-0.0549
4,GTCAGATA,0.273
5,GAATGTAC,-0.191
6,CGATTGGC,-0.225
7,ATGCATAC,-0.0354
8,TCTTAGCA,-0.0178
9,ATGCTGAG,-0.083
10,TATGACCA,-0.0717
11,GGCTAGAA,0.0223
12,CGTCCTCA,-0.137
13,ACTAAGAT,0.152
14,GATCATTA,0.348
15,CAGTTGCA,-0.0443
16,ATGAAAGC,-0.0705
17,AATGTGCA,-0.108
18,GGTCATGA,0.169
19,GGTCCGAA,-0.0438
20,ACTCCGCC,-0.2
21,CGAGGTGA,0.0978
22,CCTACGAC,-0.0209
23,GCCGTGAC,-0.0143
24,CGCTCGAC,-0.246
25,AAGGTCGG,-0.0584

row,Sequence,binding signal [E-score]
1,CGAACGCC,-0.298
2,CAATGTCA,-0.0476
3,CCAGGATA,0.38
4,CGGCAAGA,0.00449
5,AGGCCCCC,-0.281
6,GACGACAA,-0.179
7,GATTCGGC,-0.0368
8,AACGATGC,-0.0915
9,CAGGGACA,-0.155
10,AACTCATA,-0.159
11,ACCATAGT,-0.105
12,CTTCGGCC,-0.294
13,CGTTGGTA,0.0551
14,ACATCTGG,0.0442
15,CCACAATC,0.0713
16,ATATGTCG,0.272
17,TGGATGAA,-0.0436
18,AAAGGGGC,-0.122
19,CTGATTAC,-0.00664
20,GCGCGCGC,-0.152
21,CTCAAAGA,-0.183
22,GCTCTGAC,-0.225
23,GCGTCTGA,-0.068
24,GAAGTAAA,-0.192
25,AATGATGA,-0.0266

row,Sequence,binding signal [E-score]
1,ATCTTCCG,0.248
2,AATCTTAC,-0.00267
3,GAGGGTTA,-0.129
4,AACCATCC,0.00677
5,CTATCGAA,0.228
6,AGGCCGAT,0.153
7,TCAGGGAA,0.0207
8,AGTAAGAA,-0.0678
9,CACGCAGC,-0.272
10,CACAGGAA,-0.194
11,CACGGCTA,-0.0794
12,GCAGTTCC,-0.211
13,CGCGTCGC,-0.0916
14,GACGTACC,-0.0221
15,CAATGACG,-0.0537
16,ACGTGCGC,-0.273
17,CTCAGAGA,-0.0384
18,CCCTCATA,-0.0048
19,GGGTAGAA,-0.0311
20,CACGACGG,-0.0101
21,CACTGATG,-0.0679
22,GTCACGGA,0.0948
23,AAACCATC,0.113
24,CGTTCGAC,-0.0781
25,ATCTCCGC,0.261

row,Sequence,binding signal [E-score]
1,AGCGAGAC,0.00266
2,CGAAGGCG,0.0467
3,GTACGGGA,-0.0565
4,ATAGATAC,0.393
5,ACGGTGCA,-0.0419
6,GGTAACCA,0.0144
7,TATCGCCA,0.364
8,ACCTAAAC,-0.17
9,CAGTAGGA,-0.125
10,ACCACTGG,0.0213
11,ATACCATC,0.384
12,CTGATCAC,0.204
13,GGTGCCAC,-0.175
14,AAAGCATG,-0.171
15,ATAATGAT,0.203
16,CCAAGTGC,-0.234
17,CAGTTGGC,-0.15
18,CGCGAAGC,-0.187
19,ACGATCGC,0.133
20,TACACTGA,0.178
21,CTAAGAAG,-0.00928
22,ACCAAGAA,-0.134
23,CACCGGCC,0.0599
24,ATTGGGGC,0.0249
25,GCAGTAAA,-0.273

row,Sequence,binding signal [E-score]
1,ATTGCTCG,-0.0692
2,TAGAACCA,-0.216
3,AATATGCA,-0.0465
4,CCCTAGCC,0.00481
5,AGCTGGAG,0.059
6,GCTTTCGA,-0.204
7,AATCAGCA,-0.215
8,AGAAGCAT,0.00264
9,AGCTTCCG,-0.113
10,GCCTTATA,0.0746
11,ACGCCAAT,-0.0274
12,GAACGAGC,-0.00779
13,ATGGTTAA,-0.201
14,AAGTTGCT,-0.177
15,CAGCAAAC,-0.0651
16,CCAGGTCA,-0.191
17,GGGGTGAA,0.0134
18,AAAATGTC,-0.288
19,ACACTCTA,0.0358
20,CCCGCGGC,-0.0453
21,AATGCCAA,-0.213
22,GCTCACAC,-0.0542
23,TCGTGGCA,-0.213
24,GCCATAGA,-0.0531
25,AGACGGGA,0.2

row,Sequence,binding signal [E-score]
1,AGATGTGA,0.118
2,GAGAGAGC,-0.0912
3,GACGCATA,0.13
4,ACTTCCCA,-0.116
5,AGACCGGG,0.00194
6,CGATCCAC,0.375
7,GGGATTAA,0.169
8,CACGTTCA,-0.254
9,ACGTGTCC,-0.0719
10,CGCATGAG,-0.094
11,AGCCGGAT,0.382
12,CCATACAG,0.0667
13,CCGGCTCC,0.0506
14,GTCGACAC,0.0853
15,CTCCATCC,-0.175
16,CCTCTAAA,-0.272
17,CTTTCTCA,-0.169
18,CGGTGGCC,-0.256
19,CGGTATAA,0.294
20,CCTATTGA,0.187
21,GTCAGTTA,-0.247
22,AAAAGAGA,0.0301
23,TATGCTGA,-0.0917
24,GATCACAC,0.351
25,AGACTTTA,-0.136

row,Sequence,binding signal [E-score]
1,GGGCTGAC,-0.077
2,GCGAGGCC,-0.239
3,AGTTCTTA,-0.0797
4,CGTCGACC,-0.0835
5,CTTGTAAC,0.0207
6,AACCTTCA,-0.05
7,CCTATAGG,-0.0403
8,AGCAATAC,0.298
9,AGCTGAGC,0.00751
10,ACTAGGAA,-0.22
11,CTTTCCTA,-0.17
12,CTCTTGAC,-0.181
13,CAGAATTC,-0.203
14,ATCAATAG,0.144
15,GTGTGTGA,0.174
16,TGTTAAAA,-0.186
17,ACTAGGTC,0.0304
18,GCGTCACA,-0.0639
19,CCGAAATA,0.0853
20,CCACGAGC,-0.0401
21,AGTATATG,0.207
22,ATTAGCGC,-0.1
23,GAATCCCC,0.23
24,AAGTTCCT,-0.242
25,AGAGGCAC,-0.214

row,Sequence,binding signal [E-score]
1,ATAAGGTC,0.0319
2,CGGGTAAC,-4.5e-05
3,CTTAGAAA,-0.18
4,CAAATCTG,-0.0299
5,ACGCTTCG,-0.299
6,TAAGCGTA,-0.0857
7,CAGAAACA,-0.121
8,GTGCAACA,-0.111
9,AGGGAAAC,-0.219
10,CGTGCGTA,0.137
11,ACCCACGA,0.129
12,AGTCCCGC,-0.265
13,AAAGCGAA,0.032
14,AGGGGATG,0.201
15,TATAGAAA,0.122
16,AGCGCCTA,-0.135
17,AAACAGCA,-0.205
18,AGCGTTAA,-0.275
19,CAGCGTAG,-0.259
20,CGAGAATC,0.00877
21,AGGACTCA,-0.1
22,CACCTCTA,0.137
23,AGGAAGCA,-0.136
24,ACGTCTCC,0.0789
25,ACAGTGGG,-0.0214

row,Sequence,binding signal [E-score]
1,GTCGCAAC,-0.363
2,ACAACTAG,-0.115
3,GCAGACAC,0.0398
4,ACCACCCC,-0.0158
5,AGGCGGTA,0.119
6,AGATGCGA,0.136
7,CGGTAAAG,-0.179
8,AAGGATCG,0.349
9,AGCTACGG,-0.071
10,CAGTCTGG,-0.172
11,GAACTACA,-0.0323
12,ACGTCACC,-0.0983
13,AAATAAGG,-0.187
14,ATCATTCA,0.191
15,TTGCACAA,-0.23
16,TAGGCCAA,-0.0625
17,AACGATTC,0.105
18,CCTGCCCC,-0.0828
19,CCATACGC,0.136
20,CGTCTTGC,-0.0642
21,AGATCGCT,0.265
22,ATGGGGAA,0.0441
23,TGCTGTAA,-0.0938
24,AAATCGCT,-0.359
25,GGATCCCC,0.419

row,Sequence,binding signal [E-score]
1,AACTGGCC,-0.136
2,ATCAAACA,0.173
3,CCAGGAGC,-0.238
4,AGCTGACC,0.0424
5,ACTGAGAG,0.0224
6,AGCCTGAA,-0.0467
7,GATAAGTA,0.151
8,CAGCCGTC,-0.168
9,AGGTACCC,-0.102
10,TGCGTGAA,-0.000915
11,AGCGCGCC,-0.303
12,CTCGTACA,0.093
13,AGATTGGA,0.0364
14,GATAGTGA,0.231
15,AATATACG,0.162
16,ACATGACG,-0.13
17,ATTCATCA,-0.0654
18,ATTATAAT,0.151
19,AAGTCGGC,-0.157
20,AAAGAAAG,-0.227
21,AAGCCAGA,-0.175
22,AAAGAAGT,-0.0587
23,AATTACGA,-0.0294
24,GACATCAA,-0.17
25,CGAACAAA,0.00016

row,Sequence,binding signal [E-score]
1,AATTTGTC,-0.134
2,CAATGAAG,-0.312
3,GATGCTAC,0.0971
4,CCGATGGA,-0.0177
5,GGATACAC,0.405
6,TCCCTTCA,0.074
7,GGGACCCA,-0.205
8,GAAGCCTA,0.11
9,ATGTTCAC,-0.0575
10,AATGAGAG,0.00217
11,CAACGGCG,-0.239
12,AATTCGTG,-0.109
13,AAGTTTGC,-0.163
14,GAAATTCA,-0.244
15,TCGTATCA,0.45
16,TTGTCAAA,-0.153
17,CACGGGCA,-0.0129
18,CCAGATGA,0.203
19,ATGTACCA,0.0538
20,ACTAGTAG,-0.0371
21,AGCATGCT,-0.313
22,GCATGGCC,-0.187
23,CAACTAAA,-0.0157
24,ATGTGTCG,-0.0766
25,GTGTGCAA,-0.13

row,Sequence,binding signal [E-score]
1,AGTGTATG,0.0378
2,CAGCACGC,-0.183
3,ATCCTCCC,0.304
4,AGGAGAGC,-0.0652
5,CTCACCGA,0.0417
6,ACCCCTCC,0.142
7,GGCACCCA,-0.0563
8,AATAGGAT,0.332
9,CAACTAGA,0.00189
10,AAAGGATG,-0.0408
11,ATCGAGAA,0.182
12,ACGTGGCG,-0.161
13,AAGTAGGG,-0.0184
14,AGAAAAGC,-0.326
15,CCGTACGC,-0.166
16,AGACCTGG,-0.093
17,GTTCGGTA,-0.0422
18,CTTCCCCC,-0.071
19,CCCCGGAA,-0.138
